This is an account of results in publication PMC12314375, “The GTPase κB-Ras is an essential subunit of the RalGAP tumor suppressor complex” (The Journal of Biological Chemistry, 2025).

By UniProt entry, the sequences of proteins in these tests, tags left out. Where a name states a change or a piece, a line headed by the entry shows the natural chain unless it says otherwise. Chains listed by the source or under a name are the forms on record and can include a tag or linker.
UniProt Q2PPJ7: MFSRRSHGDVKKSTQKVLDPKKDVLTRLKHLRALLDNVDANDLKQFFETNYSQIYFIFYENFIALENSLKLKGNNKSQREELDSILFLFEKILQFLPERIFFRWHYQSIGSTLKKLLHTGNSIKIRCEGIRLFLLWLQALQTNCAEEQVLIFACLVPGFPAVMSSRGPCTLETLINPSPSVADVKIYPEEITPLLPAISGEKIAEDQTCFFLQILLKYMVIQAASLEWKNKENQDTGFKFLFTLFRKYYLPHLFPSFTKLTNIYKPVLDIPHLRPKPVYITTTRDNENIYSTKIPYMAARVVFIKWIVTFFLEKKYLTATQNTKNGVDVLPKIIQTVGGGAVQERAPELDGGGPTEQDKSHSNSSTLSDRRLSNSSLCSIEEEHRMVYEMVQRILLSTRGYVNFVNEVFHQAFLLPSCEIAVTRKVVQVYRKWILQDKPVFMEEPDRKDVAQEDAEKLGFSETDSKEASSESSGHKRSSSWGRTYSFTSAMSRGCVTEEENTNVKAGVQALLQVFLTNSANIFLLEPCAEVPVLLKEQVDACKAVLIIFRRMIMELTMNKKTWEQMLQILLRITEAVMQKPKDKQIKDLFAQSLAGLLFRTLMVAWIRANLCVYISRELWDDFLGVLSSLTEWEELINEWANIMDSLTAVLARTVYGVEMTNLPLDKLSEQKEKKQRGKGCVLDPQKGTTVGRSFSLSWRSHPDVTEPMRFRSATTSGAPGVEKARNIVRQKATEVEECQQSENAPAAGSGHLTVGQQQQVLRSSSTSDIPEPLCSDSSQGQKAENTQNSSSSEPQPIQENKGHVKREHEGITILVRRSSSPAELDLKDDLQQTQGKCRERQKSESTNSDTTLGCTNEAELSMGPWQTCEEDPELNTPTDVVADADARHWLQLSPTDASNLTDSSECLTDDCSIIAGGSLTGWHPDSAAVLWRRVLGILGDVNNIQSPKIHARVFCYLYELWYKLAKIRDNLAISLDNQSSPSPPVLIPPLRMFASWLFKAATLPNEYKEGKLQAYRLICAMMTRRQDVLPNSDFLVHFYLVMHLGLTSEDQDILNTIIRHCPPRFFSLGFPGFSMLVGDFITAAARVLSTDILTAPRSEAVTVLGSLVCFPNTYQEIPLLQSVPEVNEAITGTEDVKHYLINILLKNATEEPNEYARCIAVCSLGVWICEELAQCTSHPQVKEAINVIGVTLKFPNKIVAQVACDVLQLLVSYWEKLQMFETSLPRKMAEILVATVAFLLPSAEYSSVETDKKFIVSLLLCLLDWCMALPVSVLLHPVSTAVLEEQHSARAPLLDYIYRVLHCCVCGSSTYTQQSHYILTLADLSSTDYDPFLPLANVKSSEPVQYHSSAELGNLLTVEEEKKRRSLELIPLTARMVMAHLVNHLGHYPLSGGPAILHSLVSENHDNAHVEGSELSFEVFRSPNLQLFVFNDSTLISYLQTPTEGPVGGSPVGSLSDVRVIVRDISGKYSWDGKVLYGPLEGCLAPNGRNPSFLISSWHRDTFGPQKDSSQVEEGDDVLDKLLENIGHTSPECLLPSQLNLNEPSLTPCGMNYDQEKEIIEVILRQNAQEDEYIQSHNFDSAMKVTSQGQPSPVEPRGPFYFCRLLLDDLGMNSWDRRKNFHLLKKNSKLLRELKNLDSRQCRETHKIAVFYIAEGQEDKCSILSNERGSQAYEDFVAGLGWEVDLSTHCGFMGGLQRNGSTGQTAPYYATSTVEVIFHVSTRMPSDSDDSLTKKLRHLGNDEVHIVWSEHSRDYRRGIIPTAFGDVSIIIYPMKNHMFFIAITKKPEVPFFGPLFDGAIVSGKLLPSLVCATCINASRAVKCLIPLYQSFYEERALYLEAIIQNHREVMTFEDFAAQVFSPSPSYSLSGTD
RGα2Δloop in the purified RGα2Δloop/RGβ complex (Q2PPJ7, form named): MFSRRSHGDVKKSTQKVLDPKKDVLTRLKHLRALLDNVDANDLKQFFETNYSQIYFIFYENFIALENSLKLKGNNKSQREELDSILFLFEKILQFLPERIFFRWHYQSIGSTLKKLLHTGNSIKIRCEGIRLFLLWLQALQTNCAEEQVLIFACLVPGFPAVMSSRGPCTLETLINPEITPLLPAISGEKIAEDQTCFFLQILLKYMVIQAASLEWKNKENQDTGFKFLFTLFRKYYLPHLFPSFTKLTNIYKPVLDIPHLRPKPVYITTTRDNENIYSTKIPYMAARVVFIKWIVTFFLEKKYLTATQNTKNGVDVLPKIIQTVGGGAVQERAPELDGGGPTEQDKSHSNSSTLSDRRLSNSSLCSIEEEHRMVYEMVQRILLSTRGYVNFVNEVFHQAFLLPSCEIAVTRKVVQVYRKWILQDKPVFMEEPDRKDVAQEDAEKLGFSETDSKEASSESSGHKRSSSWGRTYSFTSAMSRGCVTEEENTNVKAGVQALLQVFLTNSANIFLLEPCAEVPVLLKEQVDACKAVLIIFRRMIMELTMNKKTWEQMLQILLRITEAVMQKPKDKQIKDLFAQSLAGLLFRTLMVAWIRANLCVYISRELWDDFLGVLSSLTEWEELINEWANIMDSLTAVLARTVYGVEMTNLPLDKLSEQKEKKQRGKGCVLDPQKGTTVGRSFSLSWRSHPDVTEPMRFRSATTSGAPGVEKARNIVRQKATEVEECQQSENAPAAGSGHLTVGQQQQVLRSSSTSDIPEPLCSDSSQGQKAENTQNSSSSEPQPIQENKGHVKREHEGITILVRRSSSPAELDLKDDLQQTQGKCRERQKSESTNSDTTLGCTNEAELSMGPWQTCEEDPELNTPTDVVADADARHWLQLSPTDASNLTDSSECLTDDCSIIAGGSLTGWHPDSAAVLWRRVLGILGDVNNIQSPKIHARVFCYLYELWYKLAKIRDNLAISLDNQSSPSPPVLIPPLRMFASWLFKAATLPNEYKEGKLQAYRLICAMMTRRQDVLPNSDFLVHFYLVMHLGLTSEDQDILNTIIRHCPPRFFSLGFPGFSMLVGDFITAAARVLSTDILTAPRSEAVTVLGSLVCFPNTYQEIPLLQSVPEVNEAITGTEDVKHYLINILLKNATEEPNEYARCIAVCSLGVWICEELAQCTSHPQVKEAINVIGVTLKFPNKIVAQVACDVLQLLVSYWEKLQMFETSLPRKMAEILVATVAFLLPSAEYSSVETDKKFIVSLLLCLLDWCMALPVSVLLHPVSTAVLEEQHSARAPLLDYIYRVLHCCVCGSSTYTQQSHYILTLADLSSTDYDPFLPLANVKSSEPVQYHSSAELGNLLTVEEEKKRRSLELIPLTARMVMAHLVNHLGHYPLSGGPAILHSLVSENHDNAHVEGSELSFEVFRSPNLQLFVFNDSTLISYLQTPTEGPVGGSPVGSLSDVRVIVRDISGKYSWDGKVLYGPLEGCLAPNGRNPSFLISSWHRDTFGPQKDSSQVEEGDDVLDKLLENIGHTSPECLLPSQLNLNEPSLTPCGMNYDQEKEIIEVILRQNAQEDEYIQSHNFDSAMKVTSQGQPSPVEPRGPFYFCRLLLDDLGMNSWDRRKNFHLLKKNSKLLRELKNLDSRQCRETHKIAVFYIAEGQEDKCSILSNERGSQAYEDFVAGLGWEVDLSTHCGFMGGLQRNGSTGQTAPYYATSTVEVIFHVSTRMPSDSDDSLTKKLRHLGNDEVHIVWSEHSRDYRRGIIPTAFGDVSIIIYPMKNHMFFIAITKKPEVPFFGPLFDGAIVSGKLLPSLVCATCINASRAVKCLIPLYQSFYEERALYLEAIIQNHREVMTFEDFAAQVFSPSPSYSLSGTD

Substitutions are numbered along the chain they refer to. Results are given in words; binding and its absence hold for the method and conditions named. For some of these results: In cells and extracts the contact can be indirect. Some results given as binding are weak or reduced against the parent protein; the word gives no strength.

For assay [1], the target named is T1, RGβ in the purified RalGAP complexes (UniProt Q86X10).
T1 sequence: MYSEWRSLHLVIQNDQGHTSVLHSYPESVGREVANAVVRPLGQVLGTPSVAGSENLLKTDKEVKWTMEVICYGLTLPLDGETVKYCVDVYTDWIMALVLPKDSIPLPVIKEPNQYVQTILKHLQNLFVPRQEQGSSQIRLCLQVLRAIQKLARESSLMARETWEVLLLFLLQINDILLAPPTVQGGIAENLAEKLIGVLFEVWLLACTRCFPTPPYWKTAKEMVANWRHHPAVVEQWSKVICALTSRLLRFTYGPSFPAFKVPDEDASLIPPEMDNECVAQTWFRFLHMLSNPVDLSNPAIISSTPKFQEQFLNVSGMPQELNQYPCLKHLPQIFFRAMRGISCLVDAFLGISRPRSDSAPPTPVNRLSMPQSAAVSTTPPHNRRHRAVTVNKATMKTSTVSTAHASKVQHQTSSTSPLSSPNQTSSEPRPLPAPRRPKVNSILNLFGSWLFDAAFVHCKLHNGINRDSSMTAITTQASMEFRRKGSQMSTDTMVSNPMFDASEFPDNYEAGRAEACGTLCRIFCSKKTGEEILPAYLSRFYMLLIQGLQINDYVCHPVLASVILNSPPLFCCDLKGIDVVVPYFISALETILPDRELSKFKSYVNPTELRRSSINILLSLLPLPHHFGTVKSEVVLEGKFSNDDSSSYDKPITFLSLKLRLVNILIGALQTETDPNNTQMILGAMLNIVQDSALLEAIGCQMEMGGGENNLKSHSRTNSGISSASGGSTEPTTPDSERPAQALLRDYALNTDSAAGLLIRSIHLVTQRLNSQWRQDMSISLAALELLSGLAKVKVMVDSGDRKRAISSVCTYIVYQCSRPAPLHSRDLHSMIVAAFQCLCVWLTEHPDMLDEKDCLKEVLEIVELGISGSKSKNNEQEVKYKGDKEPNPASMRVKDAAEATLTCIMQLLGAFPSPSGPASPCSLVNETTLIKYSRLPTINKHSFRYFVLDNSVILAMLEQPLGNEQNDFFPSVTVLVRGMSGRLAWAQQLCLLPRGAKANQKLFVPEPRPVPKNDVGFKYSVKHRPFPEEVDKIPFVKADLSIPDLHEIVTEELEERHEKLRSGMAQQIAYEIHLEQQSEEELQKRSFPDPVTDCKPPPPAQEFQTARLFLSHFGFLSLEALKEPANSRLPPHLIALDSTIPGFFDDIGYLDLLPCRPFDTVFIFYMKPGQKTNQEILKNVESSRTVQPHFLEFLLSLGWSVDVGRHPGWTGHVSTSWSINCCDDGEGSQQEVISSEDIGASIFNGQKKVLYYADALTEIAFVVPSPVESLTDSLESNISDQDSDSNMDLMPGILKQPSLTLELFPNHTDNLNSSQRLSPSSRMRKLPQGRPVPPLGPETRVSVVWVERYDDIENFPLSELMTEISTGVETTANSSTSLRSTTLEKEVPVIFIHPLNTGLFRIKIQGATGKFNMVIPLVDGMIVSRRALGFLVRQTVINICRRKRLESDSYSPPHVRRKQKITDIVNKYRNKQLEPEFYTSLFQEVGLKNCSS
Put plainly: co-purification; RalGAP complexes expressed in Expi293F cells and purified as complexes (as in ref. 21), then used in the in vitro GAP assay.

Assay [2] concerns the target T2, κB-Ras1 in the purified trimeric RGα2/RGβ/κB-Ras1 complex (UniProt Q9NYS0).
T2 sequence: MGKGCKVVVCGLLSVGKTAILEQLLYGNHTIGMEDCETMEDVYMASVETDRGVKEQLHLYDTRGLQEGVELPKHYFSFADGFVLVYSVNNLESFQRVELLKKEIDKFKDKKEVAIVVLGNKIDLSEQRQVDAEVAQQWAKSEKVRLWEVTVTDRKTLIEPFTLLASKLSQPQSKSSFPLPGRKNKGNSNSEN
The description is as above.

Assay [3] concerns the target T3, κB-Ras1 H58D (pCTAPa) (UniProt Q9NYS0).
T3 sequence: T2 sequence with H58D
Kind of assay: co-IP; HEK 293FT transfected with p3xFLAG-CVM7-RGα2, HA-pKH3-RGβ and pCTAPa-κB-Ras1; lysis in 40 mM Hepes, 120 mM NaCl, 10 mM MgCl2, 0.3% CHAPS, pH 7.4; κB-Ras1 precipitated on Streptavidin Sepharose; immunoblot.

Assay [4] concerns the target T4, κB-Ras1 S46Y (pCTAPa) (UniProt Q9NYS0).
T4 sequence: T2 sequence with S46Y
Described as above.

The target of assay [5] is T5, κB-Ras1 WT (pCTAPa-κB-Ras1) (UniProt Q9NYS0).
T5 sequence: T2 sequence
The assay is described as above.

Assay [6] concerns the target T6, κB-Ras1 D41A (pCTAPa) (UniProt Q9NYS0).
T6 sequence: T2 sequence with D41A
The assay is described as above.

Assay [7] concerns the target T7, κB-Ras1 A45Q (pCTAPa) (UniProt Q9NYS0).
T7 sequence: T2 sequence with A45Q
The description is as above.

Assay [8] deals with T8, κB-Ras1 V47D (pCTAPa) (UniProt Q9NYS0).
T8 sequence: T2 sequence with V47D
The assay is described as above.

As to “RGα2 in the purified RalGAP complexes (from UniProt Q2PPJ7 1-1873)”, the binding entry in assay [1] and in assay [2] was “binds” each time.
For the substance “RGα2fl/RGβ (RalGAP complex of 3xFLAG-RGα2 and HA-RGβ) (from UniProt Q2PPJ7 1-1873; Q86X10 1-1494)”, the binding entry is given as “no binding” in assay [3]; “binds” in assay [4]; “binds” in assay [5]; “no binding” in assay [6]; “no binding” in assay [7]; “no binding” in assay [8].
For “RGα2Δloop in the purified RGα2Δloop/RGβ complex (from UniProt Q2PPJ7 1-1873)”, the binding entry in assay [1] is “binds”.
For “RGα2Δloop/RGβ (RalGAP complex with RGα2 lacking residues 178–189) (from UniProt Q2PPJ7 1-1873; Q86X10 1-1494)”, in assay [5], the binding result is given as “no binding”.
